From the supplement of paper PMC4466236
Whole data set: some 33,000 sequences, median “E-score (dimensionless, -0.5 to 0.5)” near -0.058, cut for the highest 2% near 0.35. This is one part of the list.

System: MvaT
Assay: PBM 8-mer E-score (mean of HK and ME arrays) (E-score (dimensionless, -0.5 to 0.5)); higher = stronger relative binding preference; most listed sequences are background and not binding sites
Method in brief: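 Reported values are rank-based E-scores, taken as the mean of two universal arrays and parsed with a custom script. Each 8-mer score falls between -0.5 and 0.5. The arrays, ME and HK, were double-stranded 60-mers with a constant 25-mer primer region and a variable 35-mer region covering all 8-mers. They were probed, by an earlier protocol, with full-length P. aeruginosa MvaT carrying an N-terminal glutathione S-transferase fusion.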

| Sequence | PBM 8-mer E-score |
| --- | --- |
| ACAGCATG | -0.0768 |
| AATAGCCT | -0.0939 |
| CCAGTGTA | -0.0857 |
| GCTTTAGA | 0.0158 |
| AGGATATA | 0.262 |
| GTCGGACA | -0.0745 |
| TGGAGACA | -0.178 |
| CAAGCAAA | 0.0561 |
| CCATCTGA | -0.117 |
| TTCAAAAA | 0.225 |
| TAAGCTTA | 0.0997 |
| CACACATC | -0.00938 |
| ACTGCATG | -0.0123 |
| TCAGTTAA | 0.189 |
| ACAGCACT | -0.0738 |
| TATACATA | 0.389 |
| CGAAGCAC | -0.198 |
| AAAACTGG | 0.0776 |
| ACCTCGCC | -0.118 |
| CAATGTTA | 0.246 |
| CGGGACAC | -0.176 |
| CACACAAG | 0.0519 |
| AACTAATT | 0.401 |
| CGTCGTTA | 0.0543 |
| GCTTTCTA | -0.0117 |

| Sequence | PBM 8-mer E-score |
| --- | --- |
| GGCTGTTA | 0.0673 |
| GTAGAACA | -0.0137 |
| GGCGACCA | -0.192 |
| CTTCATCA | -0.0943 |
| CGATAGGC | -0.128 |
| ATCAGGGC | -0.178 |
| GCGTGCGA | -0.0466 |
| GGAGGAAA | -0.193 |
| GTGCTGCA | -0.102 |
| CCCGGAGA | -0.204 |
| CGTGAAAA | 0.176 |
| GCTGACGA | -0.28 |
| AGGTATCC | -0.0858 |
| ACATACAC | 0.214 |
| CAAGAATG | -0.0553 |
| GATAACAC | 0.242 |
| CAGAACTC | -0.0958 |
| AATGATGG | 0.0399 |
| AATTCCCG | 0.153 |
| AGGGACTA | -0.23 |
| ATGGTGAC | -0.189 |
| CCCTATAG | -0.161 |
| GTAGTAAC | 0.214 |
| AACGCCGC | -0.172 |
| CTTACAAC | 0.15 |

| Sequence | PBM 8-mer E-score |
| --- | --- |
| CTGAGCAG | -0.334 |
| CGTTTACC | -0.036 |
| GATCCAAC | -0.175 |
| AGAATATG | 0.277 |
| GCCGTCAC | -0.163 |
| CTATTCTA | 0.131 |
| AACTTCCT | 0.0455 |
| CAGTAGAA | -0.097 |
| CGGGTGAC | -0.217 |
| GCGACGCC | -0.28 |
| ACTGGGGG | -0.221 |
| AATTGCGG | 0.154 |
| GTTCGAGA | 0.00197 |
| ATAAAGCC | -0.0518 |
| CACAAGGA | -0.13 |
| CCTAGGGA | -0.298 |
| GAGAATGC | -0.17 |
| CCCCAAGC | -0.253 |
| CGGCCGAG | -0.0834 |
| ACAACGCC | -0.0268 |
| TCAATAGA | -0.00661 |
| TACATAAA | 0.307 |
| GAGCGCCC | -0.226 |
| CACAATTC | 0.0962 |
| AGCGAGTC | -0.251 |

| Sequence | PBM 8-mer E-score |
| --- | --- |
| AGTGCAAG | 0.136 |
| AACCGAGC | -0.141 |
| ATGGCCTC | -0.323 |
| GCCCACGA | -0.205 |
| CTGGCAAA | -0.0275 |
| ATCTTCGA | 0.0255 |
| AATACCCG | 0.231 |
| ACTATGTA | 0.304 |
| ATGACTTG | 0.119 |
| ACTCCAAT | 0.172 |
| GCGTGAAA | 0.0677 |
| TCCTCCAA | -0.188 |
| CTGAACTC | -0.0636 |
| ATGACTGC | -0.107 |
| GAGTGTGC | -0.0286 |
| GTGCGATA | 0.0548 |
| GCTGGACA | -0.23 |
| AAAAAACC | 0.116 |
| AGAGCCAA | -0.232 |
| TGGGACCA | -0.28 |
| AAGTGCCG | -0.0563 |
| CTAAGACC | -0.0719 |
| CTCCATAA | 0.0367 |
| AGTGCCAC | -0.0989 |
| AAAACCGG | -0.0259 |

| Sequence | PBM 8-mer E-score |
| --- | --- |
| AAGCTGGG | -0.0779 |
| AGATGTCC | -0.14 |
| CAGGAAGC | -0.181 |
| GCGTGCAA | -0.0595 |
| ACTAAATG | 0.242 |
| GAGTAAAA | 0.192 |
| ACCAAGAC | -0.0948 |
| ATCCGAAA | 0.125 |
| GGCAGGAA | -0.137 |
| GTACGGTA | 0.00151 |
| CATATGAG | 0.144 |
| TAGCCTAA | -0.00611 |
| GTAGGGAC | -0.235 |
| ACTGGTGC | 0.0352 |
| GAGGCGGC | -0.248 |
| TCAATTCA | 0.197 |
| GCCTCCTA | -0.174 |
| GGGCGAGA | -0.0425 |
| CCCTTCCC | -0.198 |
| CGCTGAAA | 0.056 |
| AGCTATAT | 0.328 |
| AGTCTCCC | -0.184 |
| AGCGGACG | -0.163 |
| CTCTTCGA | -0.216 |
| CCGCGAGG | -0.328 |

| Sequence | PBM 8-mer E-score |
| --- | --- |
| CCAACGGC | -0.262 |
| CGGCGGTA | -0.0182 |
| GGGAAGGA | -0.231 |
| GTTATAGA | 0.222 |
| AAAAAATG | 0.0805 |
| ATGGAGCG | -0.275 |
| ATCTAACA | 0.16 |
| GGAGTCCC | -0.244 |
| CCTATACG | -0.0414 |
| TAGTTCAA | 0.249 |
| AGTGGTCG | -0.154 |
| TAGTGAGA | 0.0304 |
| AACTCACG | -0.066 |
| CGTGAATA | 0.0728 |
| GACCTTAC | -0.126 |
| ATTGGCGG | -0.11 |
| ACCCCAAG | -0.232 |
| ATCGGACA | -0.0345 |
| CGGAAGCA | -0.171 |
| CCCTATAC | -0.0558 |
| CCCGGTGC | -0.244 |
| AACGTCCA | -0.194 |
| AAGATCTA | 0.0563 |
| CGGATTAG | 0.0243 |
| TCCGCAAA | -0.18 |

| Sequence | PBM 8-mer E-score |
| --- | --- |
| GCGGCTGA | -0.207 |
| ATCTCTGG | -0.102 |
| CGCTGGTC | -0.21 |
| AGGTGTAA | 0.0684 |
| ATCGCGAT | 0.023 |
| TGGTGACA | -0.0886 |
| CCAGACAG | -0.196 |
| GAGGCGGA | -0.264 |
| CCAACAGC | -0.101 |
| ATCTGGCG | -0.103 |
| ACTCGTAA | 0.223 |
| CCTGTTAG | -0.0155 |
| CATATATC | 0.398 |
| AAGTACCC | 0.0709 |
| AAGGTACT | 0.038 |
| ACTATCAC | 0.234 |
| GGGGCCGA | -0.197 |
| CTGTGGCA | -0.206 |
| TAGATCCA | 0.0425 |
| CATAGTAA | 0.282 |
| CCTTTGAA | -0.112 |
| CGTGATTC | -0.102 |
